Source: patent publication EP2330125A2 (priority 2005, dated 2007)

Assay type: in vivo, NIH/Swiss mice
Conditions: Dose 25 nmol/Kg

Sequence: KCNTATCATQRLANFLVRSSNNLGPVLPPTNVGSNTY [rat amylin]
- Mouse Food Intake, % BASAL 180 min: -35.5 % BASAL
